{
  "source": "the supplement of paper PMC11876631",
  "proteins": {"B1": {"name": "infC L152A (protein)", "chain": "MKGGKRVQTARPNRINGEIRAQEVRLTGLEGEQLGIVSLREALEKAEEAGVDLVEISPNAEPPVCRIMDYGKFLYEKSKSSKEQKKKQKVIQVKEIKFRPGTDEGDYQVKLRSLIRFLEEGDKAKITLRFRGREMAHQQIGMEVLNRVKDDAQELAVVESFPTKIEGRQMIMVLAPKKKQ"}, "B2": {"name": "infC M172Q (protein)", "chain": "MKGGKRVQTARPNRINGEIRAQEVRLTGLEGEQLGIVSLREALEKAEEAGVDLVEISPNAEPPVCRIMDYGKFLYEKSKSSKEQKKKQKVIQVKEIKFRPGTDEGDYQVKLRSLIRFLEEGDKAKITLRFRGREMAHQQIGMEVLNRVKDDLQELAVVESFPTKIEGRQMIQVLAPKKKQ"}, "B3": {"name": "infC L174A (protein)", "chain": "MKGGKRVQTARPNRINGEIRAQEVRLTGLEGEQLGIVSLREALEKAEEAGVDLVEISPNAEPPVCRIMDYGKFLYEKSKSSKEQKKKQKVIQVKEIKFRPGTDEGDYQVKLRSLIRFLEEGDKAKITLRFRGREMAHQQIGMEVLNRVKDDLQELAVVESFPTKIEGRQMIMVAAPKKKQ"}, "B4": {"name": "infC M170A (protein)", "chain": "MKGGKRVQTARPNRINGEIRAQEVRLTGLEGEQLGIVSLREALEKAEEAGVDLVEISPNAEPPVCRIMDYGKFLYEKSKSSKEQKKKQKVIQVKEIKFRPGTDEGDYQVKLRSLIRFLEEGDKAKITLRFRGREMAHQQIGMEVLNRVKDDLQELAVVESFPTKIEGRQAIMVLAPKKKQ"}, "B5": {"name": "infC V173W (protein)", "chain": "MKGGKRVQTARPNRINGEIRAQEVRLTGLEGEQLGIVSLREALEKAEEAGVDLVEISPNAEPPVCRIMDYGKFLYEKSKSSKEQKKKQKVIQVKEIKFRPGTDEGDYQVKLRSLIRFLEEGDKAKITLRFRGREMAHQQIGMEVLNRVKDDLQELAVVESFPTKIEGRQMIMWLAPKKKQ"}, "B6": {"name": "infC I165Q (protein)", "chain": "MKGGKRVQTARPNRINGEIRAQEVRLTGLEGEQLGIVSLREALEKAEEAGVDLVEISPNAEPPVCRIMDYGKFLYEKSKSSKEQKKKQKVIQVKEIKFRPGTDEGDYQVKLRSLIRFLEEGDKAKITLRFRGREMAHQQIGMEVLNRVKDDLQELAVVESFPTKQEGRQMIMVLAPKKKQ"}, "B7": {"name": "infC M172A (protein)", "chain": "MKGGKRVQTARPNRINGEIRAQEVRLTGLEGEQLGIVSLREALEKAEEAGVDLVEISPNAEPPVCRIMDYGKFLYEKSKSSKEQKKKQKVIQVKEIKFRPGTDEGDYQVKLRSLIRFLEEGDKAKITLRFRGREMAHQQIGMEVLNRVKDDLQELAVVESFPTKIEGRQMIAVLAPKKKQ"}, "B8": {"name": "infC M172W (protein)", "chain": "MKGGKRVQTARPNRINGEIRAQEVRLTGLEGEQLGIVSLREALEKAEEAGVDLVEISPNAEPPVCRIMDYGKFLYEKSKSSKEQKKKQKVIQVKEIKFRPGTDEGDYQVKLRSLIRFLEEGDKAKITLRFRGREMAHQQIGMEVLNRVKDDLQELAVVESFPTKIEGRQMIWVLAPKKKQ"}, "B9": {"name": "infC L174W (protein)", "chain": "MKGGKRVQTARPNRINGEIRAQEVRLTGLEGEQLGIVSLREALEKAEEAGVDLVEISPNAEPPVCRIMDYGKFLYEKSKSSKEQKKKQKVIQVKEIKFRPGTDEGDYQVKLRSLIRFLEEGDKAKITLRFRGREMAHQQIGMEVLNRVKDDLQELAVVESFPTKIEGRQMIMVWAPKKKQ"}, "B10": {"name": "infC L174Q (protein)", "chain": "MKGGKRVQTARPNRINGEIRAQEVRLTGLEGEQLGIVSLREALEKAEEAGVDLVEISPNAEPPVCRIMDYGKFLYEKSKSSKEQKKKQKVIQVKEIKFRPGTDEGDYQVKLRSLIRFLEEGDKAKITLRFRGREMAHQQIGMEVLNRVKDDLQELAVVESFPTKIEGRQMIMVQAPKKKQ"}, "B11": {"name": "infC I165W (protein)", "chain": "MKGGKRVQTARPNRINGEIRAQEVRLTGLEGEQLGIVSLREALEKAEEAGVDLVEISPNAEPPVCRIMDYGKFLYEKSKSSKEQKKKQKVIQVKEIKFRPGTDEGDYQVKLRSLIRFLEEGDKAKITLRFRGREMAHQQIGMEVLNRVKDDLQELAVVESFPTKWEGRQMIMVLAPKKKQ"}, "B12": {"name": "infB V744A (protein)", "chain": "MTDVTIKTLAAERQTSVERLVQQFADAGIRKSADDSVSAQEKQTLIDHLNQKNSGPDKLTLQRKTRSTLNIPGTGGKSKSVQIEVRKKRTFVKRDPQEAERLAAEEQAQREAEEQARREAEESAKREAQQKAEREAAEQAKREAAEQAKREAAEKDKVSNQQDDMTKNAQAEKARREQEAAELKRKAEEEARRKLEEEARRVAEEARRMAEENKWTDNAEPTEDSSDYHVTTSQHARQAEDESDREVEGGRGRGRNAKAARPKKGNKHAESKADREEARAAVRGGKGGKRKGSSLQQGFQKPAQAVNRDVVIGETITVGELANKMAVKGSQVIKAMMKLGAMATINQVIDQETAQLVAEEMGHKVILRRENELEEAVMSDRDTGAAAEPRAPVVTIMGHVDHGKTSLLDYIRSTKVASGEAGGITQHIGAYHVETENGMITFLDTPGHAAFTSMRARGAQATDIVVLVVAADDGVMPQTIEAIQHAKAAQVPVVVAVNKIDKPEADPDRVKNELSQYGILPEEWGGESQFVHVSAKAGTGIDELLDAILLQAEVLELKAVRKGMASGAVIESFLDKGRGPVATVLVREGTLHKGDIVLCGFEYGRVRAMRNELGQEVLEAGPSIPVEILGLSGVPAAGDEVTVVRDEKKAREVALYRQGKFREVKLARQQKSKLENMFANMTEGEVHEVNIVLKADVQGSVEAISDSLLKLSTDEVKVKIIGSGVGGITETDATLAAASNAILAGFNVRADASARKVIEAESLDLRYYSVIYNLIDEVKAAMSGMLSPELKQQIIGLAEVRDVFKSPKFGAIAGCMVTEGVVKRHNPIRVLRDNVVIYEGELESLRRFKDDVNEVRNGMECGIGVKNYNDVRTGDVIEVFEIIEIQRTIA"}, "B13": {"name": "infB V744Q (protein)", "chain": "MTDVTIKTLAAERQTSVERLVQQFADAGIRKSADDSVSAQEKQTLIDHLNQKNSGPDKLTLQRKTRSTLNIPGTGGKSKSVQIEVRKKRTFVKRDPQEAERLAAEEQAQREAEEQARREAEESAKREAQQKAEREAAEQAKREAAEQAKREAAEKDKVSNQQDDMTKNAQAEKARREQEAAELKRKAEEEARRKLEEEARRVAEEARRMAEENKWTDNAEPTEDSSDYHVTTSQHARQAEDESDREVEGGRGRGRNAKAARPKKGNKHAESKADREEARAAVRGGKGGKRKGSSLQQGFQKPAQAVNRDVVIGETITVGELANKMAVKGSQVIKAMMKLGAMATINQVIDQETAQLVAEEMGHKVILRRENELEEAVMSDRDTGAAAEPRAPVVTIMGHVDHGKTSLLDYIRSTKVASGEAGGITQHIGAYHVETENGMITFLDTPGHAAFTSMRARGAQATDIVVLVVAADDGVMPQTIEAIQHAKAAQVPVVVAVNKIDKPEADPDRVKNELSQYGILPEEWGGESQFVHVSAKAGTGIDELLDAILLQAEVLELKAVRKGMASGAVIESFLDKGRGPVATVLVREGTLHKGDIVLCGFEYGRVRAMRNELGQEVLEAGPSIPVEILGLSGVPAAGDEVTVVRDEKKAREVALYRQGKFREVKLARQQKSKLENMFANMTEGEVHEVNIVLKADVQGSVEAISDSLLKLSTDEVKVKIIGSGVGGITETDATLAAASNAILQGFNVRADASARKVIEAESLDLRYYSVIYNLIDEVKAAMSGMLSPELKQQIIGLAEVRDVFKSPKFGAIAGCMVTEGVVKRHNPIRVLRDNVVIYEGELESLRRFKDDVNEVRNGMECGIGVKNYNDVRTGDVIEVFEIIEIQRTIA"}, "B14": {"name": "infB V800A (protein)", "chain": "MTDVTIKTLAAERQTSVERLVQQFADAGIRKSADDSVSAQEKQTLIDHLNQKNSGPDKLTLQRKTRSTLNIPGTGGKSKSVQIEVRKKRTFVKRDPQEAERLAAEEQAQREAEEQARREAEESAKREAQQKAEREAAEQAKREAAEQAKREAAEKDKVSNQQDDMTKNAQAEKARREQEAAELKRKAEEEARRKLEEEARRVAEEARRMAEENKWTDNAEPTEDSSDYHVTTSQHARQAEDESDREVEGGRGRGRNAKAARPKKGNKHAESKADREEARAAVRGGKGGKRKGSSLQQGFQKPAQAVNRDVVIGETITVGELANKMAVKGSQVIKAMMKLGAMATINQVIDQETAQLVAEEMGHKVILRRENELEEAVMSDRDTGAAAEPRAPVVTIMGHVDHGKTSLLDYIRSTKVASGEAGGITQHIGAYHVETENGMITFLDTPGHAAFTSMRARGAQATDIVVLVVAADDGVMPQTIEAIQHAKAAQVPVVVAVNKIDKPEADPDRVKNELSQYGILPEEWGGESQFVHVSAKAGTGIDELLDAILLQAEVLELKAVRKGMASGAVIESFLDKGRGPVATVLVREGTLHKGDIVLCGFEYGRVRAMRNELGQEVLEAGPSIPVEILGLSGVPAAGDEVTVVRDEKKAREVALYRQGKFREVKLARQQKSKLENMFANMTEGEVHEVNIVLKADVQGSVEAISDSLLKLSTDEVKVKIIGSGVGGITETDATLAAASNAILVGFNVRADASARKVIEAESLDLRYYSVIYNLIDEVKAAMSGMLSPELKQQIIGLAEARDVFKSPKFGAIAGCMVTEGVVKRHNPIRVLRDNVVIYEGELESLRRFKDDVNEVRNGMECGIGVKNYNDVRTGDVIEVFEIIEIQRTIA"}},
  "note": "± gives the standard deviation of the averaged measurements. Laboratory Escherichia coli strains with one amino-acid change in an essential protein, pooled on minimal glucose agar with carbenicillin or gentamicin at twice the control MIC (plus kanamycin and chloramphenicol for the plasmids), 48 h. Fold change of barcode share against drug-free plates; higher = less susceptible. Active = above 20 in both replicates (the paper's putatively resistant). '<' = one read or none on drug, '>' = one read or none on a drug-free plate. Shares are relative, so most strains fall below 1 when a few take over. Listed are strains with at least 15 reads on both drug-free plates, and hits; most hits rest on fewer reference reads. Replicate rank correlation about 0.5. Edits are read from barcodes.",
  "data": [
    {"target": "Escherichia coli (laboratory strain)", "assay": "barcode share on antibiotic plates over drug-free plates; higher = less susceptible", "settings": "antibiotic: carbenicillin; 2× MIC (3.1 µg/mL)", "method": "(§1)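 A pool of E. coli strains, each edited to carry one amino-acid change in an essential protein, was grown for 48 h on minimal glucose agar with or without antibiotic; strain barcodes were sequenced; mean of two replicates.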", "values": [
      {"protein": "B1", "fold change of barcode share": "0.32 ± 0.096"},
      {"protein": "B2", "fold change of barcode share": "0.312 ± 0.0051"},
      {"protein": "B3", "fold change of barcode share": "0.279 ± 0.097"},
      {"protein": "B4", "fold change of barcode share": "0.269 ± 0.07"},
      {"protein": "B5", "fold change of barcode share": "0.26 ± 0.27"},
      {"protein": "B6", "fold change of barcode share": "0.0417 ± 0.017"},
      {"protein": "B7", "fold change of barcode share": "0.269 ± 0.043"},
      {"protein": "B8", "fold change of barcode share": "0.199 ± 0.077"},
      {"protein": "B9", "fold change of barcode share": "0.293 ± 0.13"},
      {"protein": "B10", "fold change of barcode share": "0.395 ± 0.036"},
      {"protein": "B11", "fold change of barcode share": "0.158 ± 0.012"},
      {"protein": "B12", "fold change of barcode share": "0.326 ± 0.21"},
      {"protein": "B13", "fold change of barcode share": "0.348 ± 0.12"},
      {"protein": "B14", "fold change of barcode share": "0.41 ± 0.029"}
    ]},
    {"target": "Escherichia coli (laboratory strain)", "assay": "barcode share on antibiotic plates over drug-free plates; higher = less susceptible", "settings": "antibiotic: gentamicin; 2× MIC (MIC 0.45 µg/mL)", "method": "as §1", "values": [
      {"protein": "B2", "fold change of barcode share": "0.0106 ± 0.0027"},
      {"protein": "B3", "fold change of barcode share": "< 0.0037"},
      {"protein": "B4", "fold change of barcode share": "0.00532 ± 0.0022"},
      {"protein": "B6", "fold change of barcode share": "0.0376 ± 0.026"},
      {"protein": "B7", "fold change of barcode share": "< 0.00434"},
      {"protein": "B8", "fold change of barcode share": "0.00757 ± 0.0077"},
      {"protein": "B9", "fold change of barcode share": "< 0.00679"},
      {"protein": "B10", "fold change of barcode share": "< 0.0195"},
      {"protein": "B11", "fold change of barcode share": "< 0.0195"},
      {"protein": "B12", "fold change of barcode share": "0.012 ± 0.0075"},
      {"protein": "B13", "fold change of barcode share": "< 0.00777"},
      {"protein": "B14", "fold change of barcode share": "0.0234 ± 0.0085"}
    ]}
  ]
}
